Data: PubChem BioAssay AID1159614 (National Center for Advancing Translational Sciences (NCATS), 2016)
The campaign covered roughly 45,000 compounds. About 65 (0.1%) were called active. Calls come from the whole dose curve; as a rule, active = well fitted activation curve with a large enough effect; inconclusive = small, poorly fitted or top-dose-only effect; inactive = no such curve, though single readings can be large or run the other way. The list shows a part of the results.

Biological target: Galactocerebrosidase (Homo sapiens) (UniProt P54803)
Experiment: A Novel Cell-Based Assay to Identify Small Molecules for B -Galactocerebrosidase; note: nearly all actives have a fitted effect of over 65% in size; for activation: 0% is about no effect
Details: 145M-Twi-hGALC-G270D cells (Twitcher mouse brain line with human GALC G270D), HMU-beta-Gal fluorescence, 48 h; series mostly up to 57.5 µM; activation: at the top concentration
Summary of the method: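 Mutant human GALC (G270D), stably expressed in a Twitcher mouse brain cell line lacking endogenous GALC, is measured in live-treated cells via 6-hexadecanoylamino-4-methylumbelliferyl-β-galactoside hydrolysis (0.1 mM final, pH 5.2) with fluorescent detection.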
Potency is the fitted concentration of half-maximal effect.

Sequence of UniProt P54803 (P54803 whole entry, looked up): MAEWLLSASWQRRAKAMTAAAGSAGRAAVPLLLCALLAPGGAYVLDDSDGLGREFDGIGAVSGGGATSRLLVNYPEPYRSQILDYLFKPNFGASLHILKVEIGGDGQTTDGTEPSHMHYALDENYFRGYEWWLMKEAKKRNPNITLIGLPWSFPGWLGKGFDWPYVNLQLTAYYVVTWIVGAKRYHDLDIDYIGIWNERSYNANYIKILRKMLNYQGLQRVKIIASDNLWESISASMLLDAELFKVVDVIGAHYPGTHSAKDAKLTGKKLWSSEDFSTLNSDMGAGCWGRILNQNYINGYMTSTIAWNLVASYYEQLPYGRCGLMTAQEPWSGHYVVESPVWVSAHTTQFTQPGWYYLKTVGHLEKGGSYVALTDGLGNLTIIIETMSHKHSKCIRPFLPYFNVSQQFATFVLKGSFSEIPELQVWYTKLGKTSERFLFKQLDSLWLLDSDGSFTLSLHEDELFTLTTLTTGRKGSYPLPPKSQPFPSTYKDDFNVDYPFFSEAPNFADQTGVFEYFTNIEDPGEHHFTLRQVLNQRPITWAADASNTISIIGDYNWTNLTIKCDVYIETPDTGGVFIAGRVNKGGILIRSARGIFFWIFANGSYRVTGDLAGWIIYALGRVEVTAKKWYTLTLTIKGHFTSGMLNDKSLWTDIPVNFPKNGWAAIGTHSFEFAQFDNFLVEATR

SMILES	activation	Potency
CCc1nn(CC(=O)NCc2cccc(OC)c2OC)c(=O)c2cc3occc3n12	inactive: -9.51%	
Cc1cc2oc(C(=O)Nc3cccc(-c4nc5ccccc5o4)c3)c(C)c2cc1Cl	inactive: -12.3%	
O=C(Nc1ccc(Cl)cc1)c1ccc2c(c1)N(Cc1ccccc1)C(=O)c1ccccc1S2(=O)=O	inactive: -21.3%	
COc1ccc(OC)c(CNC(=O)Cn2nc(C)c3c(C)n(-c4ccccc4)nc3c2=O)c1	inactive: -0.925%	
CCOc1ccccc1CNC(=O)CC(C)n1ccc(C)n1 (centres undefined)	inactive: -7.18%	
CN(CC(=O)Nc1cccc(C#N)c1)S(=O)(=O)c1cc2c(cc1Cl)NC(=O)CO2	inactive: -1.7%	
O=C(CSc1nc2ccccc2n1Cc1cccc(Cl)c1)N1CCN(c2ccc(F)cc2)CC1	inactive: -12.1%	
c1ccc(N2CCN(c3ncnc4c3nc3n4CCCC3)CC2)cc1	inactive: -5.91%	
COc1cc(C(=O)NCc2ccc3c(c2)CCN3C(=O)c2ccncc2)cc(OC)c1OC	inactive: -35.1%	
Cc1ccc(NC(=O)NCCc2c(C)nn(C)c2C)c(Cl)c1	inactive: -1.86%	
CCCCSc1ncnc2c1sc1nc(N3CCOCC3)c3c(c12)CCCC3	inactive: -19.5%	
COCCCNC(=O)CN1C(=O)c2c(c3ccccc3n2C)C1c1ccc(OC)cc1 (centres undefined)	inactive: -11.3%	
COc1cccc(/C=C/c2nc(C#N)c(N(C)Cc3ccccc3)o2)c1		active: 25.1 µM
COc1ccc(-c2noc(CSCC(=O)Nc3ccc(C)cc3Br)n2)cc1OC	inactive: -0.65%	
Fc1ccc(CNc2nc3c(-c4ccc(F)cc4)nnn3c3ccccc23)cc1	inactive: 4.34%	
CC1=C(C(=O)Nc2ccc(C)cc2)C(c2ccccc2Cl)n2nnnc2N1 (centres undefined)	inactive: 4.27%	
CCOc1ccc(CNC(=O)COc2cc(=O)n(C)c3ccccc23)cc1	inactive: -15.6%	
COc1cccc(NC(=O)c2cc(CN3CCOCC3)on2)c1	inactive: -15.4%	
CCC(=O)N1CCc2cc(Br)cc(S(=O)(=O)CCC(=O)NCc3ccccc3)c21	inactive: -11.2%	
O=c1ccc2cc(S(=O)(=O)N3CCCC3)ccc2[nH]1	inactive: 3.17%	
CCCCCCCCCCCCCCCC[N+](C)(C)Cc1ccccc1	inactive: -13.3%	
COc1ccccc1CNC(=O)c1c2c(nc3ccccc13)C(=O)N(C1CCCCC1)C2	inactive: -13.6%	
Cc1nn2c(=O)cc(COC(=O)c3ccc(C(C)(C)C)cc3)nc2s1	inactive: -17.7%	
CSc1cccc(NC(=O)CN(C)S(=O)(=O)c2ccc3c(c2)n(C)c(=O)c(=O)n3C)c1	inactive: -4.05%	

SMILES	activation	Potency
COc1ccc(CCNC(=O)c2ccc(CS(=O)(=O)c3ccc(C)cc3)o2)cc1OC	inactive: -16.7%	
COc1cccc(N2CCN(S(=O)(=O)c3ccc(-c4cnc(C5CC5)o4)cc3)CC2)c1	inactive: -9.29%	
CCOC(=O)C1CCCN(CCC(=O)Nc2ccc(OC)cc2OC)C1 (centres undefined)	inactive: -6.16%	
O=C(Nc1c(C(=O)N2CCN(c3ccc(F)cc3)CC2)oc2ccccc12)c1ccco1	inactive: -13.6%	
COc1ccc(CNC(=O)CCc2c(C)nc3c(c2C)c(=O)n(C)c(=O)n3C)cc1	inactive: -0.136%	
CCn1cc(C(=O)NCCc2ccccc2)c(=O)c2cc(S(=O)(=O)N3CCOCC3)ccc21	inactive: 3.23%	
O=C(CSc1nc2ccccc2n1Cc1ccc(F)c(Cl)c1)N1CCN(c2ccc(F)cc2)CC1	inactive: -2.75%	
Cc1cccc(-n2ccnc2SCC(=O)Nc2ccccc2C(F)(F)F)c1	inactive: -20.1%	
CCc1ccc(NC(=O)CSC2=Nc3ccccc3C3=NC(CCC(=O)NCc4cccs4)C(=O)N23)cc1 (centres undefined)	inactive: -3.03%	
CCCc1nn2c(=O)cc(COC(=O)c3ccc(NC(=O)c4cccs4)cc3)nc2s1	inactive: -18.1%	
COc1ccc(OC)c(CCNC(=O)CCCc2nnc3n(C)c(=O)c4sccc4n23)c1	inactive: -3.88%	
COc1cccc(N2C(=O)CSC23C(=O)N(CC(=O)Nc2cc(C)ccc2C)c2ccccc23)c1 (centres undefined)	inactive: -20.2%	
COC(=O)c1ccc(NC(=O)c2nn(C)c3c2CS(=O)(=O)c2ccccc2-3)cc1	inactive: -6.1%	
CCOC(=O)c1cc2c(=O)n3ccccc3nc2n(Cc2ccco2)c1=NC(=O)c1cc(C)cc(C)c1	inactive: -14.2%	
COc1ccc(CCNc2nc3c(c(=O)n(C)c(=O)n3C)n2Cc2ccc(F)cc2)cc1OC	inactive: -19.1%	
COc1cc(CN2CCc3nc(Nc4ccc5c(c4)OCCO5)ncc3C2)cc(OC)c1OC	inactive: -12.7%	
CCC(=O)N1CCc2cc(S(=O)(=O)NC(C(=O)NCc3ccc(OC)cc3)C(C)C)ccc21 (centres undefined)	inactive: -35.1%	
Cc1ccc(Cn2c(C)c(CNC3CCCCC3)c(C(=O)O)c2C)cc1	inactive: -9.21%	
Cc1ccc(Cl)cc1NC(=O)c1oc2ccc(S(=O)(=O)N3CCC4(CC3)OCCO4)cc2c1C	inactive: -8.16%	
Cc1ccc2sc(N3CCN(C(=O)C4COc5ccccc5O4)CC3)nc2c1C (centres undefined)	inactive: -15.7%	
Cc1cc(C)c(NC(=O)c2sc3nc(C)cc(C)c3c2N)c(C)c1	inactive: -12.9%	
COc1ccc(C)cc1NC(=O)CN1CCN(CC(=O)Nc2ccccc2F)CC1	inactive: -15.7%	
CC1CCN(S(=O)(=O)c2ccc3nc(-c4cccnc4)cc(C(=O)NCCCOC(C)C)c3c2)CC1	inactive: -13.3%	
COc1ccc2[nH]cc(CCNC(=O)Nc3ccccc3C)c2c1	inactive: -11.7%	

SMILES	activation	Potency
CCCCNC(=O)C1CCC(Cn2c(=O)c3sccc3n(CC(=O)Nc3ccccc3)c2=O)CC1 (centres undefined)	inactive: -12.7%	
N#Cc1ccc(NC(=O)C2Cc3ccccc3CN2S(=O)(=O)c2ccc(F)cc2)cc1 (centres undefined)	inactive: 1.99%	
O=C(COc1ccc(F)cc1)Nc1ccc2nc(SCCOc3ccccc3)sc2c1	inactive: -13.8%	
CCOC(=O)c1c(C)oc2ccc(N(C(C)=O)S(=O)(=O)c3c(C)cc(C)cc3C)cc12	inactive: -23.8%	
COC(=O)c1cc2sccc2n1Cc1ccc(F)cc1Cl	inactive: -26.1%	
COc1ccc(OC)c(CC2C(=O)Nc3ccc(Br)cc32)c1 (centres undefined)	inactive: -17.5%	
Cc1cc(N2CCN(c3cc(Cl)ccc3C)CC2)n2nc(-c3ccccc3)nc2n1	inactive: -19.8%	
Cc1cc(F)ccc1S(=O)(=O)Nc1cc2c(C(=O)O)c(C)oc2c2ccccc12	inactive: -21%	
CCC(=O)N1CCc2cc(Br)cc(S(=O)(=O)N3CCN(c4cc(C)ccc4C)CC3)c21	inactive: -9.34%	
CCOC(=O)c1cc(-c2ccc(C)cc2)n(CCC(=O)NCCc2ccc(C)cc2)c1C	inactive: -9.3%	
Cc1cccc(C)c1NC(=O)CCC(=O)N1Cc2ccccc2Oc2ncccc21	inactive: -24.7%	
CCC(=O)N1CCc2cc(Br)cc(S(=O)(=O)CCC(=O)Nc3ccc(Cl)cc3)c21	inactive: -4.48%	
COc1cc(-c2cc3n(C)c(C)c(CCC(=O)NC4CCCCC4)c(=O)n3n2)cc(OC)c1OC	inactive: -4.2%	
CCN(CC)CCNC(=O)c1cn(CC)c2ccc(S(=O)(=O)N3CCc4ccccc4C3)cc2c1=O	inactive: -23.8%	
O=C(NC1CCN(Cc2ccccc2)CC1)c1ccc(Cn2c(=O)c3ccccc3n(Cc3cccc(F)c3)c2=O)cc1	inactive: -3.67%	
CC(=O)N(CC(O)CO)c1c(I)c(C(=O)NCC(O)CO)c(I)c(C(=O)NCC(O)CO)c1I (centres undefined)	inactive: -20.5%	
COc1ccc(Oc2nc3c(c(=O)n(C)c(=O)n3C)n2Cc2ccc(Cl)cc2Cl)cc1	inactive: -16.6%	
O=C(Nc1ccccc1C(=O)OCc1cc(=O)n2ccsc2n1)c1ccccc1Cl	inactive: -4.54%	
COCCn1c(=N)c(C(=O)NC2CCCC2)cc2c(=O)n3cc(C)ccc3nc21	inactive: -10.5%	
CCOc1ccccc1CNC(=O)c1oc2c(c1C)-c1nn(Cc3cccc(Cl)c3)cc1CC2	inactive: -45.3%	
Cc1cccc(C(=O)NCc2nc3ccccc3n2Cc2ccccc2Cl)c1	inactive: -11.8%	
Cc1ccc2c(=O)c(C(=O)c3ccc(Cl)cc3)cn(CC(=O)Nc3ccc4c(c3)OCCO4)c2n1	inactive: -16.9%	
O=C(Nc1cccc(OCc2cc(=O)n3ccccc3n2)c1)Nc1cccc(C(F)(F)F)c1	inactive: -0.33%	
Cc1ccc(NC(=O)C2CCCN2S(=O)(=O)c2cccc3cccnc23)c(C)c1 (centres undefined)	inactive: 6.4%	

SMILES	activation	Potency
O=C(Cc1ccc(NC(=O)N2CCSc3ncccc32)cc1)NCc1cccc(Cl)c1	inactive: -15.7%	
COc1ccc(CCNC(=O)C2c3ccccc3C(=O)N2Cc2ccccc2)cc1OC (centres undefined)	inactive: -11.6%	
CCOc1ccc(CNC(=O)C2=Cc3cccc(OC)c3OC2)cc1	inactive: -0.162%	
COc1ccc(Cl)cc1C(=O)NCCS(=O)(=O)N1CCN(c2ccccc2OC)CC1	inactive: -6.68%	
COc1cccc(NC(=O)Cn2c(=O)n(Cc3ccc(C(=O)NCc4ccc(C)cc4)cc3)c(=O)c3ccccc32)c1	inactive: -6.57%	
CCOc1ccc(Cn2c(CNS(=O)(=O)c3ccc(C(C)(C)C)cc3)nc3cccnc32)cc1	inactive: -3.4%	
CCOC(=O)c1c(C)n(-c2ccccc2)c2ccc(OC(=O)c3c(F)cccc3F)cc12	inactive: 2.69%	
COc1c(C)cc(NS(=O)(=O)c2ccc3c(c2)OCCO3)cc1C	inactive: -13.6%	
CCOc1ccc(NC(=O)CCNS(=O)(=O)c2cccs2)cc1	inactive: -8.25%	
O=C(CN1C(=O)C2(SCC(=O)N2c2ccc(F)c(F)c2)c2ccccc21)Nc1cccc(Cl)c1 (centres undefined)	inactive: -16.9%	
Cc1ccccc1OCC(=O)Nc1ccc2nc(SCC(=O)N3CCOCC3)sc2c1	inactive: -9.94%	
Cc1cc(Nc2ccccc2O)nc(C)n1	inactive: -10.5%	
COc1ccc(NC(=O)CCCN2C(=O)CCn3nc(-c4cn(C)c5ccccc45)cc32)cc1	inactive: -13.4%	
Cc1ccc(C)c(S(=O)(=O)n2nc(C)c(S(=O)(=O)N3CCCCCC3)c2C)c1	inactive: 0.984%	
COc1ccc(CNC(=O)C2CCN(C(=O)N3CCOc4ccc(Cl)cc43)CC2)cc1	inactive: -3.78%	
CCOc1ccc(C(=O)NCc2nc(-c3ccc(Cl)cc3)no2)cc1OCC	inactive: -7.97%	
CCOC(=O)c1cnc2ccc(OC)cc2c1Nc1cccc(C(C)=O)c1	inactive: -0.0751%	
Cc1cccc(NC(=O)C2CCN(S(=O)(=O)c3c(C)noc3/C=C/c3ccco3)CC2)c1	inactive: -1.43%	
CCN(Cc1ccccc1)S(=O)(=O)c1ccc(F)c(C(=O)Nc2cc(C)ccc2OC)c1	inactive: 3.35%	
O=C(OCC1CCCO1)c1ccc2c(c1)N(Cc1ccc(F)cc1)C(=O)c1ccccc1S2(=O)=O (centres undefined)	inactive: -11.4%	
COc1cc(OC)c(N(C)C(=O)c2cc3c(s2)-c2ccccc2OC3)cc1Cl	inactive: 3.03%	
COc1ccc2c(CNCc3cccs3)c(C(=O)O)n(Cc3ccccc3C)c2c1	inactive: -20.8%	
